# Laboratory results published in PMC10726135.
# The other results are listed elsewhere or left out. At the low end of the ranking, values are background and their order means little. The protein was read in a cell extract, so binding may be indirect.
# Molecular target: T1, HNF4alpha8 (COS-7 nuclear extract) (UniProt P41235-5)
# T1 sequence: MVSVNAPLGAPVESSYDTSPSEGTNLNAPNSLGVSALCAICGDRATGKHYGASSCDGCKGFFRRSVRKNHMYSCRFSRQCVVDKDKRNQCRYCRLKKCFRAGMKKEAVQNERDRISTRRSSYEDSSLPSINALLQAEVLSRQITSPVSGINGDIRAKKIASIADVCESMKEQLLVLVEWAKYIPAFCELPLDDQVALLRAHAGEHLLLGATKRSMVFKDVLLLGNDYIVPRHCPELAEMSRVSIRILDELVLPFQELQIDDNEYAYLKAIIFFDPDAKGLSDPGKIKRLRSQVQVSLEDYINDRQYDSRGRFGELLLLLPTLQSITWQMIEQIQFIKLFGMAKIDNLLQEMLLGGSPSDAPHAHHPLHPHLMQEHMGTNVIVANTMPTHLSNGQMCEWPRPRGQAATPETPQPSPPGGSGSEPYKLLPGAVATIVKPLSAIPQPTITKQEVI
# Assay: protein-binding microarray
# Conditions: COS-7 nuclear extract on double-stranded Agilent 4x180k PBM; binding buffer, salt, pH and temperature not given; high values mean tight binding; double strand, one strand shown; sequences stand for … in …GCCTAGGGAGATTAGAGTATCGGTCGA
row,Sequence,binding signal (log2 normalized intensity)
1,CTCCCCTTGTCTGATAAGATTCAGAACCCA,1.46
2,TGGAACTGAAGGCAGGAAAGGGCCTCTCAG,-1.31
3,GTGAAATAGGAGGATTTTATTCAGGTGGCC,0.784
4,CAAAAACAATCAGGGGTTAGGGTGAAGTAA,-1.19
5,CTTAGTGATTAGAAGAAAAGAGTTGCTCAA,-1.41
6,AAGGATCAAGGACCTGCTCTGGGGCTACCT,-1.28
7,AATGTGTGTTCTGCTGCCATTGGATGGAAT,1.51
8,ATCATTCATGGGCCAAAGTTTGTTTCTTAT,1.98
9,CTCCTCATTCCTTTCTAATCTCAAAGTGTC,1.71
10,TTCTAAAGGCACAATCAGGGCTAAAGTCAG,-1.31
11,AAGAGGCCCATCTCACACATAATGATACCA,-0.801
12,GTCAACAAGATTCCTTGAGCATTCCAAAAA,-1.37
13,TTGGGATCAGACACGTGGGACCATGAGTAC,1.13
14,CCACTATTCATAAAGTTCTCTGGCAAATAT,-0.0389
15,TTCACCCGCGCCCAGCGGTTCCGGGCGGCA,-1.42
16,ACTCTACAACAAAGGAAATGAAGCAACACT,-1.36
17,TGACAAAGTCCATCTGGGCAAGGTGTCAAC,2.5
18,CATGCAATCACACTAATCTGTCAGAAAACC,-0.962
19,GCAGAAGGGATGGGAACCGACCTTTGGTTC,6.11
20,GAAGGACACTTAGAGATAAGGTAACAGGCC,-1.23
21,TGCGAGCGCCTTGCGAGCGTACGCAGGGCG,-1.33
22,ATCAGGAGACTGGAGAGACCAAAGGGTGAA,0.676
23,CCTCTGATTTGCTGATCCTATTTACCTGCC,0.0727
24,ATTCTTTCCCCTCCCTTCCACCTTTGCCCT,6.61
25,TGTCAGGAACAACTTCGGGAATCTGACCTT,4.3

row,Sequence,binding signal (log2 normalized intensity)
1,CAATGACCTTTGACCCTTCTCTGGGAGAAA,8.44
2,ATGCTTCCTACACGTGCTCTACTAGGCAGT,-1.26
3,GTAGAGACCTGTCTTCCTGGTGACCTTTGT,7.95
4,GCATATTTAACTTGGCAAGGGGAGGCACTC,-1.22
5,ACAAAGGTCACACTCCTGTGCAAACATCTG,1.27
6,GTTCTGTACTTTGGAACCTGAAAGAGCAAC,4.7
7,GAATGTGTGCTGGCCTGGTTCCTTCTCAGT,0.301
8,TCTCAGTAGACTAACGTATGGACTTTCTGA,3.52
9,TCAGCCGGGGAAGGTGCAGGGCTACTGTGG,-1.31
10,GGATTGATTAGATAACATCTGGACTTTACA,3.97
11,TAATCTCCAAGTAACTGAAACTACAAAAGC,-1.35
12,TATCAGTAGGTACGTTTGTGATACACCTTG,1.43
13,CTACTATGTGCCAGACACTGCTCTAGGCAT,-1.23
14,AACTTTGTAACTAACAACTGACCTTGCAGG,2.3
15,ACGTGTTTCCAGGCAAGGAATTTGGAATTC,2.23
16,TATAGGTGTTTATAAAGTTGGGAAAAGTAA,0.612
17,GTCAAACAAAAGAAAATGTGCCCTTTGGAC,7.26
18,CAACGGCTCTGCATATGCCAACAGGTGCTC,-1.34
19,TCCTTGTACCTGCGACTGAGCCCTAAGAAA,-1.35
20,ACCGGTCTTTCCACTTGGGCTTCCTCATCT,-1.09
21,GACAAACAATAGATAGGACAGTGGTCTTTA,-0.358
22,TTGGACTTCAGCCCAGGCTGATTATTCGTT,2.86
23,TTGCCCACCAATGATCAAAGGTTAGTCTTA,4.52
24,CCCGCCTTTGACACAGGCGACCTTCGCTCG,6.06
25,GGGTTAGGGTTAGGGTAGGGTTAGGGTTAG,1.2

row,Sequence,binding signal (log2 normalized intensity)
1,CCATGAGTACCAGGTCAAAAGTTCAAACTT,4.46
2,AGCCCCCTTTCCCTTATCTTTGTTATCTGT,2.37
3,CACAAGCTTCCCTTTCTACTGCCAGCCAGG,-1.31
4,TCCAAACCGGTCTTTCCACTTGGGCTTCCT,-1.35
5,TTTAGCAACTGGTATGTTAGATTAGTGTGC,1.2
6,GGGGCCCCATCGACCTTTGCTCCCGACTCT,8.88
7,TATGTGACATGGACATTCTATGGAATACAG,-0.226
8,TTTGTTCCTAGCCACCATGCTCGGCTGCCT,-1.27
9,AAGGAATGTAAGATGTTTGGGCGGGGAAAA,-0.993
10,CTCCCTTCCACCTTTGCCCTCCAAACTGAG,4.48
11,CGCTCCTCCCACGTCGCTGCCGCAGATCCC,-1.28
12,CAATATCACATACCAGTAAAAACAACTGCC,-1.3
13,AGGCCCAGGGCAAGGACTCTAAAGGGAATA,-1.36
14,CTAGAAACAGAGCCCAAGGCAAAGCAGATG,-1.3
15,GTCCGCCACTAGCAACAGCTGCAGTGAAAT,-1.32
16,TACTTTTGCTCTGTTGAAGAATAAGACCGA,0.259
17,AGTCTGGAGGGGTGCGAAGGTCGAGGCCAG,3.39
18,GGCAAGTATGGTAAGGTCGACCTTTAAACG,6.95
19,AGGGAGGAGGGGAAGAAAGGAATGTGCCTG,-1.31
20,CTGGGCCTTAAAGCATGACAAAATAACGAA,-1.27
21,AGGCAACAATGCCTTGTGTACTGAGCAGGG,-0.0081
22,CTTCTTTGCTTAAGCATAGCAAAAGTGACC,3.13
23,TGCCATTAAACACCTTATTTGGTCATGTTT,1.55
24,TGTCTTGCTGATAAAGGGTGTGAGAGAGAA,-0.25
25,AAACATCAAGACAGGTGAGAGAGCTGCATT,-1.16

row,Sequence,binding signal (log2 normalized intensity)
1,CAGCTGTTCCGTGTTCCAGAGCCTCCAAAG,-1.3
2,ACCCCAGCCTGCCCTCCTAGGGACAGGTGC,2.94
3,TGTAGAGGCCAGAGGTCGTGTCTCCATTCA,1.62
4,GATAGCTAAACCAGATACGTGGGTCTGGTA,-1.27
5,GAATAAAACCTCCCCCAAACCAAAGAGAAA,4.96
6,TTATCATGTGGTATTAACATGTAAATATGA,1.36
7,ATTGTAATCTTCAGCTGCCTTTTGCCAGGC,-0.00915
8,GTTTTCTCTGAGTTTTGAGTGTGTTTCTTG,1.78
9,CTAAAAACATTGTGGAGCTCATGTAAGGTC,1.92
10,GTTCACCAGGAAGCAAGACAATGCACTCAT,-1.45
11,GCACAGCCTCCCTGTGGGGGAGGTGCAGAG,-1.35
12,GTCAGCCCTGGTCCAGGCCATGCAACAGCC,-1.27
13,CAGGACCACACATTCCATTACTGCAGAGGC,-1.31
14,AGATACTGAACCTTGCACTATTGACCCAGT,4.44
15,TTGGTGGGAGGAGGGGGGAGGGTCGGCAAC,-1.4
16,CCCTGGGGTAATAAAAGTGTACAAAGCACA,-0.451
17,AAATGCCAATAGTGGCTTTGTTGATAACAA,-0.978
18,TTAATGAAATACAGTAGACTTTTTTTTTCT,0.548
19,CACAGGTGACCTCTGGCCACTGCAGGGAGG,2.88
20,GTGTACTGAGCAGGGTCCAACCCACAGGGG,2.15
21,CAATCAGTGTGTTGACATTTGAACCCAACC,4.71
22,GGGTCATCAGGGGTCCTGGCAGCACCTGAA,-1.04
23,ATTGCGGGCTGGTTGGCACGCTTAGGGAAC,-1.3
24,AGGACTTGCGGTGTTACACTTGTTTAAATG,1.28
25,ATATTGACATTCCAGCCTCCAGCTACTCAC,-1.27

row,Sequence,binding signal (log2 normalized intensity)
1,AGTTACTTAAGCCATCTGCTGCCTCAGTTT,-1.38
2,TTCTCAGGCATCTCTGGGGGTCAGAAGTCC,5.38
3,CCTAGCAAACAATGAGGACGTGTGTGTTCT,1.6
4,AACATGGGCTTAAGACAAGAATGTGAGATA,-1.32
5,CAAAGGTCACTTAGTCCCTAAGTCTTTCAA,3.68
6,TTCCTGGAAATCCCGAAATAGAGCCAAACA,-1.34
7,TATAGGGGAGGTCCTAAAGAGGATATCCTG,-1.16
8,AGCCCAGTCTTGGCCCCACCGGTCACGACC,1.06
9,CTGCCTAACAGGAGTGTTTTTTTCACCTGG,0.868
10,AAGGTGCTACCACGAGAGTAGAGAGTTGTT,-1.03
11,CTTTTCTGCTTTTGGAATTTGACCTCATTT,7.55
12,TTTGTTCATATCGGCTCCATCTAGCAGCCC,-1.31
13,GGCAAATTGAAACCTTGCGCAAGTCCCAGA,-1.33
14,ACAAAATACAAGTCGTAAAGACCTTGCTGA,-1.17
15,ACCTGCCAAAGAAGAAAACAATGACCTCTG,4.18
16,ACCTTTTTTTCATGCAAATTTCCGTGTCGA,1.44
17,AGCAGTTCACACTCCCACCAGCATGGTGAT,-1.37
18,GAGAGTAAGTTTCTGTCTCACCTGTAAATG,-0.263
19,CTGGAATGATACGCCGGCCAATCCGGCTGG,-1.1
20,AGGATACCTAGTAGGCACAAAGGTGCAAAG,0.717
21,AGAGAAAGGGTCAATGTGATCAGGTGTGGG,0.791
22,ATCACCATCAGATCTGGGTGTGCCATTCTT,0.839
23,AAATCTCTCTGGTCAAAGGGTAAAGATTAT,3.14
24,CAAAGTCCAAAGCCTCATCTGAGATAAGGC,2.64
25,AAGTGACCCTCAGACACACAGTCCACAGGC,0.576

row,Sequence,binding signal (log2 normalized intensity)
1,CAGGTTCATTCTTTAAGTGTGGGGTGACTG,1.47
2,AACATGCTGCAGGCATTTCTGGAATTCTCT,-1.41
3,GCAGAGGTCAATGTCCACACCCCAGTTTCA,5.24
4,GTCACAGTATTCATTCCCCTAGTATATTGG,1.96
5,TTTTGATTGCTTAGGCTCTTGTTATGAAAC,0.557
6,GCATGCCCCGCGCCGCGTCCCTTCCCCCGG,3.62
7,TGTGGAATGGCAACATGTGGGCAAATAGGA,-1.05
8,CTGTCTGCTGAGGATGTGGCCCCGAGATAA,2.25
9,CCCAAGATGGATTGGGTCCACACATTCCTA,0.829
10,TCTGATTGGTTGGAGAAAGCAGCCAACCAG,-1.29
11,CAGTATCAAAGTCCCCAGATAAGACAAAGT,2.22
12,TCAGCCCACTTCCTACCATCAAAGGTTGTC,0.655
13,CAGTAACCTAAGTCAGGAAACTGACTCAAC,-1.4
14,GAGAAGACATAGTTTTTGCCCTTAAGCAGC,1.93
15,GGGGCCCAGGTCGAAGTTTATGTTTACTGT,1.26
16,CTTTTGGAATCCCCATCTCACCATAAACTC,1.78
17,CAAAGATTGTGAGACAAGAGAAGAGAAAAA,-1.29
18,TTAAGACTCAAAGTTCAGTCGAATTTGGTT,2.33
19,GGTGAACTTTGAGACTATCCTTGGACCGCA,3.32
20,CTCTGGGGGAACCTCTGGTCAAATTCCAAC,3.23
